# From the supplement of paper PMC3724861
# The other results are listed elsewhere or left out.
# Tested on: T1, Caupolican (Caup) homeodomain DNA-binding domain
# T1 sequence: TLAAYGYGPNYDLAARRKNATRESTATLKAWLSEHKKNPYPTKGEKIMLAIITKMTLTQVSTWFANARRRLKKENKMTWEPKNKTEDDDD
# Assay: PBM E-score (8-mer, recovered from the published 9-mer minima) (E-score (dimensionless, -0.5 to 0.5)); Drosophila protein; higher = stronger relative binding preference, active = 0.31 or more
# In short: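 An enrichment score, with higher meaning stronger, expresses relative binding preference for each short DNA word. The protein used was Caup's homeodomain DNA-binding domain (residues 214-303), produced by in vitro transcription and translation and tested at 100 nM on custom-designed protein binding microarrays. The 8-mer values were recovered from published 9-mer scores, each equal to the lower of its two constituent 8-mer scores.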
row,Sequence,PBM E-score
1,AGTACAGA,inactive: 0.138
2,TACCGGGA,inactive: -0.026
3,AACATTAA,inactive: 0.25
4,ACACTCGT,inactive: 0.0679
5,CTCATCTA,inactive: 0.0119
6,CGCGATTC,inactive: -0.0903
7,AGATCACC,inactive: 0.0519
8,ACCGCATC,inactive: -0.12
9,TACTACTA,≥ 0.29
10,CCACTGAG,inactive: -0.183
11,GATCCAAA,inactive: 0.118
12,AGCACTGG,inactive: -0.124
13,AGTCCGAG,inactive: -0.0228
14,ACAACCAT,inactive: 0.298
15,AGCTCACC,inactive: -0.191
16,CAAATACA,inactive: 0.245
17,TAGAGAAA,inactive: -0.00911
18,GCGATAGC,inactive: -0.045
19,CTAATTTC,inactive: 0.051
20,CTGTGGGA,inactive: -0.126
21,CACACGGG,inactive: -0.0095

row,Sequence,PBM E-score
1,AAGCAAAA,inactive: 0.0629
2,GCTTCATA,inactive: -0.0776
3,CTCGAAAC,inactive: 0.0396
4,CCGCCCCC,inactive: -0.389
5,CAGCTCCA,inactive: -0.0944
6,AATACAAG,active: 0.346
7,CAAACAGG,inactive: 0.169
8,CAGCGGGC,inactive: -0.237
9,AAAAACTT,inactive: 0.0649
10,AGTTTGGC,inactive: -0.0592
11,TCAAGACA,inactive: 0.121
12,CCAAGTCA,inactive: -0.0457
13,AATAAAAG,inactive: -0.0307
14,AATCATGA,inactive: 0.164
15,CCTGCTCC,inactive: -0.0699
16,TCGCACGA,inactive: 0.0172
17,GGGACTCA,inactive: -0.214
18,CGGGCCCC,inactive: -0.287
19,AGGCGCCA,inactive: -0.174
20,GGTGACAC,inactive: 0.172
21,CCGAGGGA,inactive: -0.187

row,Sequence,PBM E-score
1,ACCAGATG,inactive: 0.121
2,CCAGACCC,inactive: -0.206
3,CAGATTCG,inactive: 0.00506
4,AACTCGTA,inactive: 0.163
5,CGCTCTGC,inactive: -0.177
6,CATAGCGG,inactive: -0.174
7,ATTTCCTC,inactive: -0.0253
8,ATCATGGA,inactive: 0.00242
9,GCCGCGGC,inactive: -0.324
10,AACGCACA,inactive: 0.0456
11,CGAGCAGA,inactive: -0.116
12,AAGTTTGC,inactive: 0.0221
13,CGAGAAAG,inactive: -0.0642
14,AACTTCCC,inactive: -0.0836
15,GCGACCGA,inactive: -0.108
16,CTTCTGTA,inactive: 0.115
17,CAGTTTCG,inactive: -0.0432
18,GGTCCGAC,inactive: -0.0703
19,AATGGAGC,inactive: -0.0674
